# Measured values taken from PubChem BioAssay AID624296 (National Center for Advancing Translational Sciences (NCATS), 2012).
# Hit rate of the full screen: of about 350,000 compounds, about 9,900 (2.8%) were called active. Inconclusive means that the source gave no clear call. Such entries were picked first, then a sample of the others. Calls come from the whole dose curve; as a rule, active = well fitted activation curve with a large enough effect; inconclusive = small, poorly fitted or top-dose-only effect; inactive = no such curve, though single readings can be large or run the other way. Potencies of inconclusive entries are left out as doubtful fits.
# Assay: A quantitative high throughput screen for small molecules that induce DNA re-replication in MCF 10a normal breast cells. Note: nearly all actives have a fitted effect of over 50% in size.
# Conditions: MCF 10A DNA re-replication, Hoechst nuclear intensity, 48 h; series mostly up to 46.1 µM
# Potency is the fitted concentration of half-maximal effect; tags give direction and shape of the fitted curve.
row,SMILES,Potency
1,COc1cccc(-c2sc3cc(OC)c(OC)cc3c2-c2ccc(OCCN3CCCCC3)cc2)c1,"inconclusive [activator, single point]"
2,Cc1ccc2cc3cc(C(=O)N4CCCCC4C)oc3nc2c1 (stereo unspecified),inactive
3,N/C(=N\OC(=O)c1ccc([N+](=O)[O-])cc1)c1cccnc1,inactive
4,Cc1cc([N+](=O)[O-])nn1CCCC(=O)O,inactive
5,O=C1OCCN1/N=C/c1ccc([N+](=O)[O-])o1,"inconclusive [activator, partial curve, poor fit]"
6,Cc1cc(N)n(-c2ccccc2C)n1,"inconclusive [activator, partial curve, poor fit]"
7,Cc1cccc(C(=O)NCc2nnc3c4ccccc4c(-c4ccccc4)nn23)c1,"inconclusive [activator, single point]"
8,Cc1cccc(C(=O)NC(=S)Nc2ccc(Cc3ccncc3)cc2)c1,"inconclusive [activator, single point]"
9,CCOc1ccc(N(CC(=O)NC2CCCC2)C(=O)CCC(=O)Nc2nccs2)cc1,inactive
10,COc1cccc(Nc2nc(-c3ccccc3)nc3ccccc23)c1,"inconclusive [activator, single point]"
11,Cc1ccc(NC(=O)C2CCCN2C(=O)c2cccs2)cc1C (stereo unspecified),inactive
12,CC(=O)Nc1ccc(NC(=O)c2sc3nc4c(c(-c5ccc(C)cc5)c3c2N)CCC4)cc1,active: 5.8 µM
13,CCOC(=O)c1ccc(CC2SC(N)=NC2=O)cc1 (stereo unspecified),"inconclusive [activator, single point]"
14,NC(=O)c1ccc(-n2nnnc2SCC(=O)Nc2ccccc2)cc1,inactive
15,COc1ccc(N2C(=S)NC3c4cc(Cl)ccc4OC2(C)C3C(=O)N(C)C)cc1 (stereo unspecified),"inconclusive [activator, single point]"
16,O=C(OCc1nnc(-c2ccc([N+](=O)[O-])cc2)o1)c1ccc(F)c(S(=O)(=O)N2CCOCC2)c1,inactive
17,COCCCNC(=S)N1CCCN(c2nc3cc(C)c(C)cc3cc2C#N)CC1,active: 18.4 µM
18,CN1CCN(c2nc(-c3ccc(Br)cc3)nnc2-c2ccccc2)CC1,"inconclusive [activator, partial curve, poor fit]"
19,CCOc1ccc2c(c1)c(C(C)=O)c(C)n2-c1ccccc1,"inconclusive [activator, single point]"
20,O=C1CC(N2CCCCCC2)C(=O)N1c1ccc2c(c1)OCO2 (stereo unspecified),active: 14.6 µM
21,CNC(=O)/C(C#N)=C/c1c(F)cccc1Cl,"inconclusive [activator, partial curve, poor fit]"
22,COc1cccc(OCc2cc(/C=N/Nc3ccc(C(=O)O)cc3)ccc2OC)c1,"inconclusive [activator, single point]"
23,CSCCC(NS(=O)(=O)c1ccccc1F)C(=O)OCc1ccccc1Cl (stereo unspecified),"inconclusive [activator, single point]"
24,CCCCNc1c(-c2ccc(OC)c(SC(C)CC)c2)nc2cc(C)ccn12 (stereo unspecified),active: 20.6 µM

row,SMILES,Potency
1,Cc1ccc(Cl)cc1NC(=O)c1ccccc1OCC(=O)Nc1ccc(Cl)cc1,active: 9.2 µM
2,Cc1[nH]c2ccccc2c1-c1csc(N)n1,inactive
3,CCOC(=O)N1CCN(S(=O)(=O)c2ccc(OCC)cc2)CC1,inactive
4,Cc1cccn2c(=O)c(C=C(C#N)C#N)c(N3CCN(c4cccc(Cl)c4)CC3)nc12,"inconclusive [activator, full curve, poor fit]"
5,O=C(NC(=S)NCc1ccccc1)c1cccnc1,inactive
6,COc1cc(C2NC(=O)NC(C)=C2C(=O)OC2CCCCC2)cc(Br)c1O (stereo unspecified),"inconclusive [activator, single point]"
7,Nc1nonc1-n1nnc(C(=O)N/N=C/C=C/c2ccccc2)c1CSC1=NCCS1,"inconclusive [activator, single point]"
8,C[C@@H]1CN([C@@H](C)CO)C(=O)c2cccc(NC(=O)Nc3ccc(F)cc3)c2O[C@@H]1CN(C)Cc1ccc(Oc2ccccc2)cc1,"inconclusive [activator, partial curve, poor fit]"
9,CCn1c2ccccc2c2cc(NC(=O)c3cccc(OC)c3OC)ccc21,inactive
10,CC(C)(C)[C@@H]1CCC(=O)N(CC[C@H](N=[N+]=[N-])c2ccccc2)CC1,active: 20.6 µM
11,C=C(C)CSc1nc(N)c2c3c(sc2n1)CCC3,"inconclusive [activator, partial curve, poor fit]"
12,Cc1ccc(CN(C)C(=O)c2c(C)nn(-c3ccccc3)c2C)cc1,"inconclusive [activator, full curve, poor fit]"
13,Nc1nc(Cl)c(C=O)c(N2CCCCC2)n1,"inconclusive [activator, partial curve, poor fit]"
14,CC(C)C(=O)Nc1ccnc(-c2cccnc2)n1,"inconclusive [activator, full curve, poor fit]"
15,C/C(=N\NC(=O)c1cccs1)C(C)(C)C,inactive
16,COC(=O)[C@]1(Cc2ccccc2)N[C@H](CN(C)C(=O)Nc2ccc(C(F)(F)F)cc2)[C@@H]2C(=O)N(C)C(=O)[C@@H]21,inactive
17,Oc1ccc(C(c2nnnn2CCc2ccccc2)N2CCN(c3nc4ccccc4s3)CC2)cc1 (stereo unspecified),inactive
18,CCC(C)NC(=O)c1ccccc1NC(=O)C1COc2ccccc2O1 (stereo unspecified),inactive
19,O=C(O)c1cn(Cc2ccccc2)c2ccc(Cl)cc2c1=O,inactive
20,C#Cc1ccc([C@H]2C=C(C(=O)Nc3ccccc3)O[C@@H](OCc3ccc(CO)cc3)C2)cc1,"inconclusive [activator, single point]"
21,CCN(CC)c1ccc(/C=C(/C#N)C(=O)NCc2ccccc2)o1,"inconclusive [activator, partial curve, poor fit]"
22,COc1ccc(C)cc1NC(=O)c1ccc(CN2CCc3ccccc3C2)cc1,"inconclusive [activator, partial curve]"
23,COc1ccc(-c2nn(-c3ccccc3)cc2/C=N/Nc2ccccn2)cc1OC,active: 23.1 µM
24,COc1ccc(NC(=S)N2C3CCC2CC(NC(=O)NC24CC5CC(CC(C5)C2)C4)C3)c(OC)c1 (stereo unspecified),"inconclusive [activator, partial curve, poor fit]"

row,SMILES,Potency
1,Nc1nc(-c2ccccc2)c(N=Nc2ccccc2Cl)s1,"inconclusive [activator, single point]"
2,C=CCOC(=O)C1=C[C@@H](c2ccccc2)C[C@@H](OCc2ccc(CO)cc2)O1,"inconclusive [activator, single point]"
3,CC1CN(C2=N/C(=C/c3ccc4c(c3)OCO4)C(=O)N2)CC(C)O1 (stereo unspecified),"inconclusive [activator, single point]"
4,N#Cc1nc(-c2cccc3ccccc23)oc1NCCN1CCCCC1,"inconclusive [activator, single point]"
5,COc1ccc(N(CC(=O)NCCSc2ccccn2)S(=O)(=O)c2ccccc2)c(OC)c1,inactive
6,O=C(c1ccc2ccccc2c1)N1CCN(c2ccccc2)CC1,inactive
7,CCc1ccc(-c2nc(SCC(=O)N(CCOC)c3c(N)n(Cc4ccccc4)c(=O)[nH]c3=O)n[nH]2)cc1,"inconclusive [activator, single point]"
8,O=C(NNc1c2ccccc2nc2ccccc12)c1ccccc1O,inactive
9,CCCC(=O)NC(c1cccs1)c1cc(Cl)c2cccnc2c1O (stereo unspecified),inactive
10,Cn1nc(C(=O)NCC(c2cccs2)N2CCOCC2)c2ccccc2c1=O (stereo unspecified),"inconclusive [activator, partial curve, poor fit]"
11,Cc1c(Cl)cccc1NC(=S)N(CCN(C)C)C(C)c1ccccn1 (stereo unspecified),inactive
12,CC(OC(=O)c1ccc(O)cc1)C(=O)Nc1cc(C(F)(F)F)ccc1Cl (stereo unspecified),"inconclusive [activator, single point]"
13,CCOC(=O)Nc1ccc(S(=O)(=O)NCCCN2CCOCC2)cc1,"inconclusive [activator, full curve]"
14,Nc1nc(CCl)nc(Nc2cccc3ccccc23)n1,"inconclusive [activator, full curve]"
15,COC(=O)CSc1nnc(COc2cccc3ccccc23)o1,inactive
16,Cc1ccc(C)c(-n2[nH]c3c4c(ccc3c2=O)C(=O)c2ccccc2C4=O)c1,active: 18.4 µM
17,COc1ccc2nc(NC(=O)CCc3ccc(OC)c(OC)c3)sc2c1,"inconclusive [activator, single point]"
18,CCOC(=O)Oc1c(OC)cc(C(=O)O[C@@H]2C[C@@H]3CN4CCc5c([nH]c6cc(OC)ccc56)[C@H]4C[C@@H]3[C@H](C(=O)OC)[C@H]2OC)cc1OC,"inconclusive [activator, full curve, poor fit]"
19,O=C(NCC(c1cccs1)N1CCOCC1)c1ccc(Br)o1 (stereo unspecified),"inconclusive [activator, partial curve, poor fit]"
20,Cc1cc(C)n(-c2nc3ccccc3c(=O)n2OCC(C)C)n1,inactive
21,COCCCNC(=O)c1cccn2c(=O)c3cc4ccccc4cc3nc12,active: 13 µM
22,CC(C)CCc1noc(CN2CCN(CC(=O)NC(C)C)CC2)n1,inactive
23,Cc1cccc(N2CCN(C(=O)c3cc4c(=O)[nH]c5ccccc5c4n3C)CC2)c1C,"inconclusive [activator, partial curve, poor fit]"
